Laboratory results: PubChem BioAssay AID686971 (National Center for Advancing Translational Sciences (NCATS), 2013)
Hit rate of the full screen: of about 360,000 compounds, about 7,500 (2.1%) were called active. The shares of active, inactive and inconclusive entries below differ from those in the screen. Calls follow the shape of the dose curve; as a rule, active = well fitted cell-killing curve with a large enough effect; inconclusive = small, poorly fitted or top-dose-only effect, or effect the other way, or another doubt; inactive = no such curve, though single readings can be large or run the other way. No potency is given beside an inconclusive call; the fits are too rough.

Experiment: qHTS for induction of synthetic lethality in tumor cells producing 2HG: qHTS for the HT-1080-IDH1KD cell line;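 as to activity, negative = toxicity: 0% = DMSO wells and -100% = cell-free medium wells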
Settings: HT-1080 IDH1 knockdown viability, ATP luminescence, 48 h; activity, negative = toxicity: at 46.1 µM (top of the series) unless noted
How it was run: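 HT-1080-IDH1KD cells (IDH1 knocked down), 750/well in RPMI with 5% FBS, treated with compound 48 h at 37 degrees C. Viability by CellTiter-Glo luminescence, normalised to DMSO and no-cell wells; concentration-response curves classed.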
Potency is read from the fitted curve at half-maximal effect; tags tell the direction and shape of the fitted curve.

Row | SMILES | Potency | activity, negative = toxicity
1 | Cc1cc(OCCN2CCC(Cc3ccccc3)CC2)ccc1[N+](=O)[O-] | inconclusive [cytotoxic, single point] | 
2 | CC1CC(C)CN(S(=O)(=O)c2ccc(C(=O)N3CCN(c4ccccc4)CC3)cc2)C1 (configuration not stated) | inconclusive [cytotoxic, partial curve, poor fit] | 
3 | O=C(/C(=C\c1ccccc1)c1nc2ccccc2[nH]1)c1ccc(Cl)cc1 | active: 3.26 µM | 
4 | CCCNC(=O)C1(C)CCCN(Cc2ccc(Oc3ccccc3)cc2)C1 (configuration not stated) | inconclusive [cytotoxic, single point] | 
5 | O=C(Nc1cccc(-n2cccn2)c1)C1CCCN(Cc2ccccc2F)C1 (configuration not stated) |  | inactive: 7.13%
6 | COc1ccc(C(CNC(=O)C(C)(C)Oc2ccc(Cl)cc2)N2CCCC2)cc1 (configuration not stated) | inconclusive [cytotoxic, single point] | 
7 | CCC(C)Oc1ccc(/C=C/c2[nH]c(=O)[nH]c(=O)c2[N+](=O)[O-])cc1OC (configuration not stated) | inconclusive [cytotoxic, single point] | 
8 | O=C(NCC(c1ccc(F)cc1)N1CCOCC1)c1ccc([N+](=O)[O-])o1 (configuration not stated) | inconclusive [cytotoxic, single point] | 
9 | O=C(NCC(c1ccco1)N1CCOCC1)C1CCCCC1 (configuration not stated) |  | inactive: 9.26%
10 | Cc1ccc2c(c1)c1nc3ccccc3nc1n2CCN1CCOCC1 |  | inactive: -14.6%
11 | COc1ccc(C(=O)NCCCN2CCOCC2)cc1 |  | inactive: 2.62%
12 | Cc1ccc(OCCCCN2CCc3ccccc3C2)cc1 | inconclusive [cytotoxic, single point] | 
13 | COc1cc(-c2noc(CCCC(=O)NCc3ccccc3)n2)cc(OC)c1OC | inconclusive [cytotoxic, single point] | 
14 | Cc1nc(NCc2ccco2)c2c3c(sc2n1)CCC3 | inconclusive [cytotoxic, single point] | 
15 | COc1cc2[nH]c3c(N4CCN(c5ccccn5)CC4)ncnc3c2cc1OC | inconclusive [cytotoxic, single point] | 
16 | CSc1nc2ccccc2n1Cc1c(Cl)cccc1Cl | inconclusive [cytotoxic, single point] | 
17 | O=C(Nc1ccc(Cl)c(Cl)c1)Nc1cc(S(=O)(=O)N2CCOCC2)ccc1N1CCCC1 | inconclusive [cytotoxic, partial curve] | 
18 | CC(C)Cc1nc(N2CCN(C(=O)c3ccco3)CC2)c(C#N)c2c1CCC2 | inconclusive [cytotoxic, single point] | 
19 | CNC[C@H](CC1CCCCC1)NC[C@H](CO)NCCc1cccc(C(F)(F)F)c1 | inconclusive [cytotoxic, single point] | 
20 | Cc1ccc2c(CN(C)Cc3cccc(Cl)c3)cc(=O)oc2c1C | inconclusive [cytotoxic, partial curve] | 
21 | O=C(Nc1cccc([N+](=O)[O-])c1)c1cc2ccccc2cc1O | active: 3.66 µM | 
22 | COC(=O)C1=CN(c2ccc(OC)cc2OC)C(N)=C(C#N)C1c1ccc(OC)cc1 (configuration not stated) | inconclusive [cytotoxic, partial curve] | 
23 | O=C1N/C(=N\N=C\c2cccnc2)SC1Cc1ccc(SC(F)F)cc1 (configuration not stated) | active: 23.1 µM | 

Row | SMILES | Potency | activity, negative = toxicity
24 | Cc1ccc2cccc(S(=O)(=O)N3CCN(c4ccccc4F)CC3)c2n1 | inconclusive [cytotoxic, partial curve] | 
25 | C#CCOCCOCCOCCNc1nc(N2CCN(C(=O)CCCCCCCCCCNC(=O)[C@H]([C@@H](C)CC)n3cc(CCCCCN)nn3)CC2)nc(N2CCN(C(=O)CCCCCCCCCCNC(=O)[C@@H]([C@H](C)O)n3cc(C)nn3)CC2)n1 | inconclusive [cytotoxic, single point] | 
26 | Cc1cccc(OCCNC(=O)c2ccc(Cl)c(S(=O)(=O)NCc3cccnc3)c2)c1 | inconclusive [cytotoxic, full curve] | 
27 | COc1ccc(-c2cc3nc(-c4ccccc4)cc(N4CCC(O)CC4)n3n2)cc1 | inconclusive [cytotoxic, single point] | 
28 | COc1ccccc1NC(=O)Cc1csc(NC(=S)Nc2ccccc2)n1 | active: 3.16 µM | 
29 | O=C(Nc1ccc([N+](=O)[O-])cc1)N1CCc2ccccc2C1 | active: 11.6 µM | 
30 | Cc1ccc(C(=O)N2CCN(CCNC(=O)C(=O)Nc3ccc(Cl)cc3)CC2)cc1 |  | inactive: 3.33%
31 | CNC(=S)N(CCc1ccc(OC)c(OC)c1)C1CC(=O)N(c2ccccc2)C1=O (configuration not stated) | inconclusive [cytotoxic, single point] | 
32 | O=C1NC[C@H](Cc2ccc(O)cc2)N(C[C@@H]2CCCN2C[C@H](Cc2ccccc2)N2C[C@H](Cc3ccccc3)N(CC3CCCCC3)C(=O)C2=O)C1=O | inconclusive [cytotoxic, single point] | 
33 | O=C(NCc1cccnc1)c1ccc2nc([C@@H]3O[C@H](CO)[C@H](O)[C@H](O)[C@H]3O)[nH]c2c1 |  | inactive: 15.5%
34 | CCn1nccc1C(=O)Nc1ccc(C)c(C)c1 |  | inactive: -12.5%
35 | CCN(CC(=O)Nc1ccc2c(c1)OCCO2)C(=O)c1cccc(OCC(C)C)c1 | inconclusive [rising, single point] | 
36 | C[C@H](CO)N1C[C@H](C)[C@@H](CN(C)C(=O)Nc2ccc(C(F)(F)F)cc2)Oc2ccc(NC(=O)Nc3ccccc3)cc2C1=O | inconclusive [cytotoxic, single point] | 
37 | COCCNC(=O)c1cc(-c2ccc(-c3ccccc3)cc2)nc2ccccc12 | inconclusive [cytotoxic, partial curve] | 
38 | CCOc1ccc(-n2c(SCc3nc(-c4ccc(C)cc4)no3)nnc2-c2ccncc2)cc1 | active: 10 µM | 
39 | Cc1cccc(C)c1-n1nnnc1C(c1ccccc1)N1CCN(C/C=C/c2ccccc2)CC1 (configuration not stated) | inconclusive [cytotoxic, partial curve] | 
40 | COc1cccc(OC)c1/C=C/C(=O)NC1CCCCC1 |  | inactive: 0%
41 | COc1cc(OC)cc(C(=O)N/N=C(\C)CC(=O)Nc2ccccn2)c1 | active: 3.26 µM | 
42 | O=C1C=C(C#Cc2ccc(Oc3ccccc3)cc2)C[C@@H](c2ccc(F)cc2)C1 | inconclusive [cytotoxic, single point] | 
43 | CCOC(=O)CC1CCCCN1C(=O)c1ccc2oc(CCc3ccccc3)nc2c1 (configuration not stated) |  | inactive: -16.8%
44 | COc1ccc(C(=O)OCC(=O)Nc2sccc2C(N)=O)cc1[N+](=O)[O-] | inconclusive [rising, partial curve] | 
45 | CCCN(CCC)c1nc(-c2ccccn2)nc2ccccc12 | active: 9.2 µM | 
46 | CC1CC(C)CN(C(=O)c2cccc(S(=O)(=O)N3c4ccccc4CC3C)c2)C1 (configuration not stated) | inconclusive [cytotoxic, partial curve] | 

Row | SMILES | Potency | activity, negative = toxicity
47 | Cc1ccccc1CN1CCN(CCCc2ccccc2)C(CCO)C1 (configuration not stated) | inconclusive [cytotoxic, single point] | 
48 | CCN(CC(=O)Nc1c(F)cccc1F)C(=O)/C=C/c1ccc(S(=O)(=O)N2CCCCCC2)cc1 | inconclusive [cytotoxic, partial curve] | 
49 | CCn1c(O)c(C=NCc2cccs2)c(=O)n(CC)c1=S |  | inactive: 5.68%
50 | CC1(C)NC(=O)N(CCCCOc2ccc(Cl)cc2)C1=O |  | inactive: 1.21%
51 | Cc1cccc(C)c1OC(=O)CSc1nnc(-c2ccccc2O)o1 | inconclusive [cytotoxic, single point] | 
52 | Cc1ccc(-c2nn(CCC#N)cc2C=C(C#N)C#N)cc1 | inconclusive [cytotoxic, single point] | 
53 | CCCCN(C(=O)c1cccc(S(=O)(=O)N2CC(C)OC(C)C2)c1)c1c(N)n(CCCC)c(=O)[nH]c1=O (configuration not stated) |  | inactive: 17%
54 | CCOC(=O)c1c(C)[nH]c(C(=O)OCC(O)=C(C#N)c2nc3ccccc3[nH]2)c1C | inconclusive [cytotoxic, single point] | 
55 | Cc1ccc(S(=O)(=O)c2nnn3c2nc(NCCCN2CCCC2=O)c2ccccc23)cc1C | inconclusive [cytotoxic, single point] | 
56 | Cc1cc(C)n(-c2nnc(C)n2/N=C/c2ccccc2F)n1 | inconclusive [cytotoxic, partial curve] | 
57 | Brc1cc2c(cc1Br)OCCOCCOCCOCCO2 |  | inactive: -0.107%
58 | O=C(c1ccccc1F)N1CCN(C(=O)C2CC2)CC1 |  | inactive: 23.4%
59 | Cc1c(C)c2c(OCC(=O)Nc3ccc(CCO)cc3)cc3c(c2oc1=O)CCC(C)(C)O3 | inconclusive [cytotoxic, single point] | 
60 | CC1=NN(c2ccc([N+](=O)[O-])cc2)C(=O)/C1=C\N(C)C | active: 8.2 µM | 
61 | COc1ccc(S(=O)(=O)N(CC(=O)NCc2ccncc2)c2cc(C)cc(C)c2)cc1OC |  | inactive: 6.1%
62 | C=CCSc1nc2c(cnn2-c2ccccc2)c(=O)n1N |  | inactive: 0.668%
63 | COc1ccc(/C=C(/NC(=O)c2ccc(Br)o2)C(=O)Nc2cccc(C(=O)O)c2)cc1 |  | inactive: 1.52%
64 | CSc1cccc(NC(=S)N(CCCN2CCC(C)CC2)Cc2cccs2)c1 | inconclusive [cytotoxic, single point] | 
65 | COc1ccc(C(=O)Nc2oc(-c3ccccc3)c(-c3ccccc3)c2C#N)cc1 | inconclusive [cytotoxic, partial curve] | 
66 | COc1ccccc1CNC(=O)CCN1C(=O)c2ccccc2C1=O | inconclusive [rising, single point] | 
67 | CC1CCCC(C)N1CCCNC(=O)c1ccc2c(c1)NC(=O)c1ccccc1S2 (configuration not stated) | inconclusive [cytotoxic, single point] | 
